# According to the supplement of paper PMC4604168 (melanoma cell lines):
# The other results are listed elsewhere or left out. Many values rest on one well or one pass, so single values are uncertain.
# Tests used:
# Assay in all cases: cell count relative to DMSO control; melanoma cells; higher = more viable cells
# Conditions in all cases: library dose: low library concentration; 72 h
# WM115 = tested on: WM115
# WM1716 = tested on: WM1716
# WM1745 = tested on: WM1745
# WM3526 = tested on: WM3526
# WM3619 = tested on: WM3619
# WM451Lu = tested on: WM451Lu
# 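Further: cell number obtained by counting DAPI-stained nuclei in high-throughput microscope images with image analysis software, screen run in 1,536-well plates.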
structure (smiles),measurement,setting,value
"O=C(Nc1cc(C(F)(F)F)cc(C(F)(F)F)c1)c1cc(Cl)ccc1O + Cn1nnc2c(C(N)=O)ncn2c1=O [temozolomide] (first compound 0.016 µM, partner dose 2 µM)",cell count,WM115,93%
same,cell count,WM1716,87.1%
same,cell count,WM1745,86.2%
same,cell count,WM3526,95.5%
same,cell count,WM3619,98.1%
same,cell count,WM451Lu,90.6%
"O=C(Nc1ccccc1)c1cc([N+](=O)[O-])ccc1Cl + N#Cc1c(O)c2c(-c3ccc(-c4ccccc4O)cc3)csc2[nH]c1=O [A769662] (first compound 2 µM, partner dose 2 µM)",cell count,WM115,95.8%
same,cell count,WM1716,105%
same,cell count,WM1745,108%
same,cell count,WM3526,96.7%
same,cell count,WM3619,88%
same,cell count,WM451Lu,103%
"O=C(Nc1cc(C(F)(F)F)cc(C(F)(F)F)c1)c1cc(Cl)ccc1O + Cn1c(=O)n(-c2ccc(C(C)(C)C#N)cc2)c2c3cc(-c4cnc5ccccc5c4)ccc3ncc21 [NVP-BEZ235] (first compound 0.016 µM, partner dose 0.004 µM)",cell count,WM115,100%
same,cell count,WM1716,98.8%
same,cell count,WM1745,91.6%
same,cell count,WM3526,106%
same,cell count,WM3619,111%
same,cell count,WM451Lu,90.8%
"O=C(O)[C@@H]1[O][Sb](=[O])([O][Sb]2(=[O])[O][C@H]([C@H](O)CO)[C@H](O)[C@H](C(=O)O)[O]2)[O][C@H]([C@H](O)CO)[C@@H]1O (some centres undefined) [stibogluconate] + C#Cc1cccc(Nc2ncnc3cc(OCCOC)c(OCCOC)cc23)c1 [erlotinib] (first compound 2 µM, partner dose 0.8 µM)",cell count,WM115,106%
same,cell count,WM1716,108%
same,cell count,WM1745,92.4%
same,cell count,WM3526,104%
same,cell count,WM3619,88.7%
same,cell count,WM451Lu,94.2%
"O=C(Nc1cc(C(F)(F)F)cc(C(F)(F)F)c1)c1cc(Cl)ccc1O + N#Cc1c(O)c2c(-c3ccc(-c4ccccc4O)cc3)csc2[nH]c1=O [A769662] (first compound 0.016 µM, partner dose 2 µM)",cell count,WM115,93%
same,cell count,WM1716,116%
same,cell count,WM1745,108%
same,cell count,WM3526,145%
same,cell count,WM3619,147%
same,cell count,WM451Lu,89.2%
"O=C(Nc1cc(C(F)(F)F)cc(C(F)(F)F)c1)c1cc(Cl)ccc1O + COc1cc2ncnc(Nc3ccc(Oc4ccccc4)cc3)c2cc1OC [SrcI1] (first compound 0.016 µM, partner dose 2 µM)",cell count,WM115,106%
same,cell count,WM1716,116%
same,cell count,WM1745,86.9%
same,cell count,WM3526,77.3%
same,cell count,WM3619,94.2%
same,cell count,WM451Lu,96.8%
"O=C(Nc1cc(C(F)(F)F)cc(C(F)(F)F)c1)c1cc(Cl)ccc1O + O=C(Nc1cccc(Cl)c1)Nc1ncc(CCNc2ncnc3ccsc23)s1 [SNS314] (first compound 0.016 µM, partner dose 0.0008 µM)",cell count,WM115,82%
same,cell count,WM1716,106%
same,cell count,WM1745,91.5%
same,cell count,WM3526,101%
same,cell count,WM3619,89.4%
same,cell count,WM451Lu,89.4%
"Cn1nnc2c(C(N)=O)ncn2c1=O [temozolomide] + NCC(=O)Nc1ccc(-n2nc(C(F)(F)F)cc2-c2ccc3c(ccc4ccccc43)c2)cc1 [OSU03012] (first compound 2 µM, partner dose 1 µM)",cell count,WM115,101%
same,cell count,WM1716,101%
same,cell count,WM1745,97.6%
same,cell count,WM3526,59.8%
same,cell count,WM3619,101%
same,cell count,WM451Lu,55.6%
"O=C(O)c1ccc2c(c1)nc(Nc1cccc(Cl)c1)c1ccncc12 + O=S(=O)(c1ccccc1)N(CC(F)(F)F)c1ccc(C(O)(C(F)(F)F)C(F)(F)F)cc1 [T0901317] (first compound 0.4 µM, partner dose 1.4 µM)",cell count,WM115,86.7%
same,cell count,WM1716,71.3%
same,cell count,WM1745,88.8%
same,cell count,WM3526,62.4%
same,cell count,WM3619,99%
same,cell count,WM451Lu,88.6%
"O=C(O)c1ccc2c(c1)nc(Nc1cccc(Cl)c1)c1ccncc12 + CC(=O)c1c(C)c2cnc(Nc3ccc(N4CCNCC4)cn3)nc2n(C2CCCC2)c1=O [palbociclib] (first compound 0.4 µM, partner dose 0.04 µM)",cell count,WM115,85.7%
same,cell count,WM1716,53.5%
same,cell count,WM1745,81.9%
same,cell count,WM3526,47.5%
same,cell count,WM3619,85.2%
same,cell count,WM451Lu,103%
"O=C(O)c1ccc2c(c1)nc(Nc1cccc(Cl)c1)c1ccncc12 + C=C(c1ccc(C(=O)O)cc1)c1cc2c(cc1C)C(C)(C)CCC2(C)C [Bexarotene] (first compound 0.4 µM, partner dose 2 µM)",cell count,WM115,97.9%
same,cell count,WM1716,76.5%
same,cell count,WM1745,93.5%
same,cell count,WM3526,75%
same,cell count,WM3619,93.3%
same,cell count,WM451Lu,69.8%
"Cc1cc(N2CCOCC2)cc2[nH]c(-c3c(NC[C@@H](O)c4cccc(Cl)c4)cc[nH]c3=O)nc12 + Cc1cc([N+](=O)[O-])ccc1NS(=O)(=O)c1cc(Cl)ccc1Cl [FH535] (first compound 0.2 µM, partner dose 1 µM)",cell count,WM115,94.3%
same,cell count,WM1716,99.3%
same,cell count,WM1745,59.6%
same,cell count,WM3526,107%
same,cell count,WM3619,91.3%
same,cell count,WM451Lu,113%
"Cn1nnc2c(C(N)=O)ncn2c1=O [temozolomide] + C=CCn1c(=O)c2cnc(Nc3ccc(N4CCN(C)CC4)cc3)nc2n1-c1cccc(C(C)(C)O)n1 [MK1775] (first compound 2 µM, partner dose 0.02 µM)",cell count,WM115,79.8%
same,cell count,WM1716,55.5%
same,cell count,WM1745,81%
same,cell count,WM3526,96.5%
same,cell count,WM3619,88.9%
same,cell count,WM451Lu,81.1%
"O=C(Nc1cc(C(F)(F)F)cc(C(F)(F)F)c1)c1cc(Cl)ccc1O + Cn1cncc1[C@@](N)(c1ccc(Cl)cc1)c1ccc2c(c1)c(-c1cccc(Cl)c1)cc(=O)n2C [tipifarnib] (first compound 0.016 µM, partner dose 0.01 µM)",cell count,WM115,83.1%
same,cell count,WM1716,78.7%
same,cell count,WM1745,94.7%
same,cell count,WM3526,89.4%
same,cell count,WM3619,93.3%
same,cell count,WM451Lu,93.8%
"O=C(O)c1ccc2c(c1)nc(Nc1cccc(Cl)c1)c1ccncc12 + Cn1nnc2c(C(N)=O)ncn2c1=O [temozolomide] (first compound 0.4 µM, partner dose 2 µM)",cell count,WM115,99.8%
same,cell count,WM1716,85.9%
same,cell count,WM1745,97.5%
same,cell count,WM3526,80.2%
same,cell count,WM3619,94.5%
same,cell count,WM451Lu,54.8%
"Cn1nnc2c(C(N)=O)ncn2c1=O [temozolomide] + CN(C)S(=O)(=O)c1ccc2c(c1)/C(=C/c1cc3c([nH]1)CCCC3)C(=O)N2 [SU6656] (first compound 2 µM, partner dose 0.4 µM)",cell count,WM115,79.5%
same,cell count,WM1716,97.8%
same,cell count,WM1745,92.4%
same,cell count,WM3526,101%
same,cell count,WM3619,94.4%
same,cell count,WM451Lu,98.3%
"O=C(Nc1cc(C(F)(F)F)cc(C(F)(F)F)c1)c1cc(Cl)ccc1O + CC(C)CCN1c2nc(Nc3cc(F)c(O)c(F)c3)ncc2N(C)C(=O)C1C [BID1870] (first compound 0.016 µM, partner dose 0.2 µM)",cell count,WM115,94.2%
same,cell count,WM1716,73.1%
same,cell count,WM1745,115%
same,cell count,WM3526,105%
same,cell count,WM3619,129%
same,cell count,WM451Lu,105%
"Cn1nnc2c(C(N)=O)ncn2c1=O [temozolomide] + Oc1nc(-c2ccc(C(F)(F)F)cc2)nc2c1CSCC2 [XAV939] (first compound 2 µM, partner dose 2 µM)",cell count,WM115,92.6%
same,cell count,WM1716,61.5%
same,cell count,WM1745,89.9%
same,cell count,WM3526,116%
same,cell count,WM3619,83.5%
same,cell count,WM451Lu,100%
"O=C(Nc1cc(C(F)(F)F)cc(C(F)(F)F)c1)c1cc(Cl)ccc1O + CC(=O)c1c(C)c2cnc(Nc3ccc(N4CCNCC4)cn3)nc2n(C2CCCC2)c1=O [palbociclib] (first compound 0.016 µM, partner dose 0.04 µM)",cell count,WM115,75.1%
same,cell count,WM1716,64.8%
same,cell count,WM1745,80.3%
same,cell count,WM3526,71.8%
same,cell count,WM3619,58.2%
same,cell count,WM451Lu,127%
"O=C(Nc1cc(C(F)(F)F)cc(C(F)(F)F)c1)c1cc(Cl)ccc1O + CN1CCN(c2ccc3nc(-c4c(N)c5c(F)cccc5[nH]c4=O)[nH]c3c2)CC1 [Dovitinib] (first compound 0.016 µM, partner dose 0.1 µM)",cell count,WM115,103%
same,cell count,WM1716,105%
same,cell count,WM1745,93.9%
same,cell count,WM3526,102%
same,cell count,WM3619,96.2%
same,cell count,WM451Lu,104%
"Cc1cc(N2CCOCC2)cc2[nH]c(-c3c(NC[C@@H](O)c4cccc(Cl)c4)cc[nH]c3=O)nc12 + CCc1ccc(CCOc2ccc(CC3SC(=O)NC3=O)cc2)nc1 [pioglitazone] (first compound 0.2 µM, partner dose 2 µM)",cell count,WM115,96.6%
same,cell count,WM1716,103%
same,cell count,WM1745,76.2%
same,cell count,WM3526,116%
same,cell count,WM3619,88%
same,cell count,WM451Lu,94.2%
"O=C(O)[C@@H]1[O][Sb](=[O])([O][Sb]2(=[O])[O][C@H]([C@H](O)CO)[C@H](O)[C@H](C(=O)O)[O]2)[O][C@H]([C@H](O)CO)[C@@H]1O (some centres undefined) [stibogluconate] + OCCn1cc(-c2cnc3nnn(Cc4ccc5ncccc5c4)c3n2)cn1 [PF04217903] (first compound 2 µM, partner dose 1 µM)",cell count,WM115,89.5%
same,cell count,WM1716,96.4%
same,cell count,WM1745,94.1%
same,cell count,WM3526,105%
same,cell count,WM3619,90.2%
same,cell count,WM451Lu,95.2%
"O=C(O)[C@@H]1[O][Sb](=[O])([O][Sb]2(=[O])[O][C@H]([C@H](O)CO)[C@H](O)[C@H](C(=O)O)[O]2)[O][C@H]([C@H](O)CO)[C@@H]1O (some centres undefined) [stibogluconate] + Cn1c(Nc2ccc(C(F)(F)F)cc2)nc2cc(Oc3ccnc(-c4ncc(C(F)(F)F)[nH]4)c3)ccc21 [CHIR265] (first compound 2 µM, partner dose 0.08 µM)",cell count,WM115,58.8%
same,cell count,WM1716,92.1%
same,cell count,WM1745,78.2%
same,cell count,WM3526,46.1%
same,cell count,WM3619,89.5%
same,cell count,WM451Lu,88.2%
"O=C(Nc1ccccc1)c1cc([N+](=O)[O-])ccc1Cl + O=C(O)C(=O)Nc1sc2c(c1C(=O)O)CCNC2 [TCS401] (first compound 2 µM, partner dose 1.66667 µM)",cell count,WM115,101%
same,cell count,WM1716,91.3%
same,cell count,WM1745,88.4%
same,cell count,WM3526,95.8%
same,cell count,WM3619,98.2%
same,cell count,WM451Lu,93.9%
